This note sets out measurements from PMC4336329 (PLoS ONE, 2015).

About 2,200 (0.71%) of roughly 310,000 compounds showed an effect of 50% or more. The effect is printed as a negative number. The list shows a part of the results.

For the experiment, the target named is human ether-à-go-go-related gene (hERG) potassium channel (human, UniProt Q12809). Kind of experiment: primary screen, population patch clamp on CHO cells stably expressing hERG.
Sequence of human ether-à-go-go-related gene (hERG) potassium channel (Q12809 whole entry, looked up): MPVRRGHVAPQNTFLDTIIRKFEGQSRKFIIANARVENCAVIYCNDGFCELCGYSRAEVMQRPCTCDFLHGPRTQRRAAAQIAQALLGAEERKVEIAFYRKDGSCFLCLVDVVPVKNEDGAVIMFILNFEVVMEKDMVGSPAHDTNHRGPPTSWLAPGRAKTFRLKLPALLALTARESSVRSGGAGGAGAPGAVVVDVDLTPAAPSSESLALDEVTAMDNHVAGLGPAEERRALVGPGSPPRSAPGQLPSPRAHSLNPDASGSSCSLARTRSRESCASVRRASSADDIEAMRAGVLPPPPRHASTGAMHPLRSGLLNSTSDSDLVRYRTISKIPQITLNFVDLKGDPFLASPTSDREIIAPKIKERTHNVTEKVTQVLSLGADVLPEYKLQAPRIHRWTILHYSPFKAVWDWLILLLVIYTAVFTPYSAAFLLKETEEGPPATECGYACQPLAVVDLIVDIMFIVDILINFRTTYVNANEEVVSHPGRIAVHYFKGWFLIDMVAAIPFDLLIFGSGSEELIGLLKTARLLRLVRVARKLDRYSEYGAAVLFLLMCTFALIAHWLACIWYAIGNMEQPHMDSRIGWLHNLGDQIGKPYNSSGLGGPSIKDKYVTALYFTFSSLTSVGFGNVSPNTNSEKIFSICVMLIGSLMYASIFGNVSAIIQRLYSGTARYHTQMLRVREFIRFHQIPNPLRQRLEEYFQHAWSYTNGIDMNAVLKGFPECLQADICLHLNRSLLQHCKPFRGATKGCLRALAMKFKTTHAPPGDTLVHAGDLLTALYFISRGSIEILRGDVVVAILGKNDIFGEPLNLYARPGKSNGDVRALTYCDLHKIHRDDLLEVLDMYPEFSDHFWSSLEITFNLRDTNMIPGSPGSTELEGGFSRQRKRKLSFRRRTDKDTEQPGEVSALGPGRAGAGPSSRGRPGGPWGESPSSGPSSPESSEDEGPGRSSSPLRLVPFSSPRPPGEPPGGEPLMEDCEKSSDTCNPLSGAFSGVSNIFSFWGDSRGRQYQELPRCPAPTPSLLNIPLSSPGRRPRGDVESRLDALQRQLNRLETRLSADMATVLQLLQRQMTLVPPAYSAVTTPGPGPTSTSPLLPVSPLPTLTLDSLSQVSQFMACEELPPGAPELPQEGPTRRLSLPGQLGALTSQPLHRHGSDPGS
In the case of `c1ccc(-c2noc(-c3ccco3)n2)nc1`, the “hERG current change (%, negative = inhibition) at 1uM” value came to 2.45%.
To `COc1ccc(CNC(=O)C2=C(C)C(=O)OC23CCC(C)CC3)cc1` (stereo not shown) belongs 17.3%.
With `N#Cc1ccc(-c2ccccc2)nc1SCC(=O)c1cc2ccccc2oc1=O` the figure was 19.3%; with `S=c1[nH]nc(-c2ccco2)n1/N=C/c1ccc(Cl)cc1`, 12.8%.
For `ON/C=N/C(=S)Nc1ncc(C(F)(F)F)cc1Cl`, the “hERG current change (%, negative = inhibition) at 1uM” value was 6.38%.
`O=C(N/N=C/c1c(O)ccc2ccccc12)c1ccc(Br)o1`: the “hERG current change (%, negative = inhibition) at 1uM” value stood at 13.4%.
With `CCc1cccc(CC)c1NC(=S)N(CCN(C)C)C(C)c1cccnc1` (stereo not shown) the figure was 8.51%; with `O=C(CNS(=O)(=O)c1ccc(Cl)c(C(F)(F)F)c1)NC1CCCCCC1`, 9%.
With `COCCC(=O)N1CCC(Oc2ccc(C(=O)NCCSC)cc2)CC1` the figure was 18.5%.
To `O=C(/C=C/c1ccc([N+](=O)[O-])cc1)NCc1ccco1` belongs -3.05%; to `COc1ccc(Br)cc1/C(C)=N/NC1=NCCN1.Cl`, -0.131%; to `COc1ccc(-c2nnn(CC(=O)N3CCN(c4ccccc4OC)CC3)n2)cc1OC`, 24.8%.
`C=CCOc1ccc(/C=C/C(=O)OCC(=O)NC2CCCCCCC2)cc1`: the “hERG current change (%, negative = inhibition) at 1uM” value was determined as 12.2%.
To `O=C(CC(=O)Nc1ccccc1[N+](=O)[O-])Nc1ccccc1[N+](=O)[O-]` belongs 10.6%; to `O=C(Nc1ccc(N2CCN(C(=O)c3ccco3)CC2)cc1)c1cc(Br)ccc1Cl`, 8.3%.
In the case of `O=C(COC(=O)/C=C/c1ccco1)Nc1ncc(Cl)cc1Cl`, the “hERG current change (%, negative = inhibition) at 1uM” value is given as 5.52%.
In the case of `O=C(O)C1=C[C@@H](c2coc3ccccc3c2=O)C[C@@H](OCCCCO)O1`, the “hERG current change (%, negative = inhibition) at 1uM” value worked out at 18.1%.
With `CC(C)(CNC(=O)Cc1ccc(NS(=O)(=O)c2cccc(C(F)(F)F)c2)cc1)N1CCOCC1` the figure was 0.453%; with `CN(C)c1ncc(S(=O)(=O)c2ccccc2)c(=O)[nH]1`, 14.9%; with `NCC(O)CN(c1ccccc1)c1ccccc1` (stereo not shown), 15.1%.
Take `O=C(O)c1c(-c2ccc(Cl)cc2)cn2ccccc12`: the “hERG current change (%, negative = inhibition) at 1uM” value amounted to 16.2%.
In the case of `CCOc1nc2cnccc2n(CC(=O)Nc2c(F)c(F)cc(F)c2F)c1=O`, the “hERG current change (%, negative = inhibition) at 1uM” value is on record as 17.2%.
`COc1cccc(NC(=O)CN2C(=O)NC(c3ccccc3)(c3ccccc3)C2=O)c1`: the “hERG current change (%, negative = inhibition) at 1uM” value amounted to 9.04%.
With `O=C(CN1CCOCC1)NCCC12CC3CC(CC(C3)C1)C2` the figure was 1.4%.
To `Cc1nc2sccn2c(=O)c1S(=O)(=O)N1CCN(c2cccc(C(F)(F)F)c2)CC1` belongs 16.8%.
To `O=C1CSC(=Nc2ccccc2)N1` belongs 9.27%; to `Cc1c(Cl)cccc1NC(=O)NNC(=O)CCc1ccccc1`, 15.9%.
`O=C(CN1C(=O)NC2(CCCCCC2)C1=O)N1CCCCC1`: the “hERG current change (%, negative = inhibition) at 1uM” value came out at 6.81%.
To `O=C(Cc1ccc(Cl)cc1)N1CCOCC1` belongs 8.39%.
Consider `CSc1ncccc1C(=O)OCC(=O)c1ccc(S(=O)(=O)N2CCCCC2)cc1`, for which the “hERG current change (%, negative = inhibition) at 1uM” value is 8.16%.
In the case of `COc1cccc(OCC(=O)Nc2c3c(nn2-c2ccc(F)cc2)CS(=O)(=O)C3)c1`, the “hERG current change (%, negative = inhibition) at 1uM” value is on record as 5.33%.
With `CC1CCCCN1C(=O)COC(=O)CNC(=O)c1sc2ccccc2c1Cl` (stereo not shown) the figure was 4.84%; with `CCN(C(=O)Cn1cnc2c1c(=O)n(C)c(=O)n2C)C1CCS(=O)(=O)C1` (stereo not shown), 2.1%; with `COc1cccc(NC(=S)C(C#N)=C2N(C)c3ccccc3N2C)c1`, 10.1%.
With `CCCOc1ccc(-c2nnc(-c3cccs3)o2)cc1` the figure was 13.6%; with `COc1ccc(S(=O)(=O)N(CCC(N)=O)Cc2ccco2)cc1OC`, 12.2%; with `CCOC(=O)C1C(=O)NC(SCC(N)=O)=C(C#N)C1c1ccccc1OCC` (stereo not shown), 4.3%.
To `O=C(CSc1ccc(Cl)cc1)Nc1nnc(-c2ccco2)o1` belongs -1.41%; to `C=CCOc1cccc(CNCc2cccnc2)c1.Cl`, 17%.
Consider `C=C(C)CC1(NC(C)c2ccccc2)CCCCC1` (stereo not shown), for which the “hERG current change (%, negative = inhibition) at 1uM” value was 9.47%.
With `Cc1cc(C)nc(N/N=C/c2ccc([N+](=O)[O-])o2)n1` the figure was 10.3%; with `Cc1[nH]c(-c2ccco2)nc1C(=O)O`, -0.859%; with `CC(C)[C@H](NC(=O)N1CC(=O)Nc2ccccc21)C(=O)N[C@@H](C(=O)O)c1ccccc1`, 17.6%.
For the molecule `O=[N+]([O-])c1ccc(Cl)c(/C=N/Nc2nc(N3CCOCC3)nc(N3CCOCC3)n2)c1`, the “hERG current change (%, negative = inhibition) at 1uM” value was determined as 14.1%.
`O=c1c2ccccc2nnn1CSc1ccccc1`: the “hERG current change (%, negative = inhibition) at 1uM” value amounted to 7.39%.
In the case of `CSCCC(NS(=O)(=O)c1ccccc1F)C(=O)NCc1ccncc1` (stereo not shown), the “hERG current change (%, negative = inhibition) at 1uM” value came to 2.74%.
With `CCOc1cc(N2CCOCC2)c(OCC)cc1NC(=O)[C@H](C)N1C(=O)C2CC=CCC2C1=O` (stereo partly shown) the figure was 7.64%; with `COc1ccc(CNCCNC(=O)c2cccs2)cc1OC.O=C(O)C(=O)O`, -5.92%; with `Cn1nc(-c2ccc(Cl)cc2)cc1NC(=O)CSCC(=O)O`, 10.6%.
To `CC(C)N(C(=O)CSc1nnc(Cn2nnc3ccccc32)n1C)C(C)C` belongs 6.55%.
With `CCOP(=O)(OCC)C(Nc1ccccc1)c1cccnc1` (stereo not shown) the figure was 15.4%.
Take `CCOC(=O)c1cc2occc2n1CC(=O)N1CCN(C(=O)c2ccco2)CC1`: the “hERG current change (%, negative = inhibition) at 1uM” value is recorded as -15.2%.
In the case of `COc1ccc(-n2c(Cc3cccn3C)nnc2SCC(=O)N2CCOCC2)cc1`, the “hERG current change (%, negative = inhibition) at 1uM” value stood at 9.14%.
`O=C(CSc1nnnn1-c1ccc(F)cc1)Nc1nc2ccccc2s1`: the “hERG current change (%, negative = inhibition) at 1uM” value was determined as 13.9%.
With `Cl.O=C(OCCN1CCOCC1)c1ccccc1`, the “hERG current change (%, negative = inhibition) at 1uM” value came to 12.2%.
Turning to `Cc1cc(NC(=O)c2ccc(Cl)c(S(=O)(=O)N3CCCCC3)c2)no1`, the “hERG current change (%, negative = inhibition) at 1uM” value is recorded as 13.1%.
With `COc1ccc(C(=O)OCc2cc(C)ccc2C)cc1S(=O)(=O)N1CCCC1` the figure was 3.56%; with `Cc1cccc(C)c1NC(=O)c1ccc(N2CCCC2=O)cc1`, 3.94%.
